Measurements published in paper PMC6919601, “Identification of Plasmodium dipeptidyl aminopeptidase allosteric inhibitors by high throughput screening” (PLoS ONE, 2019).
Values joined by “and” are separate entries in the source; they are usually repeats but may differ in a detail not shown here. Identical values can stand only once. In all, about 110,000 compounds went through this assay and about 230 (0.21%) showed an effect of 50% or more. Some of the results follow.

These compounds were tested against DPAP1 (Plasmodium falciparum, UniProt Q8IIJ9) (assay: primary screen, percent inhibition; read by cleavage of a fluorogenic dipeptide substrate; higher = more effect of the substance).
DPAP1, sequence (Q8IIJ9 whole entry, looked up): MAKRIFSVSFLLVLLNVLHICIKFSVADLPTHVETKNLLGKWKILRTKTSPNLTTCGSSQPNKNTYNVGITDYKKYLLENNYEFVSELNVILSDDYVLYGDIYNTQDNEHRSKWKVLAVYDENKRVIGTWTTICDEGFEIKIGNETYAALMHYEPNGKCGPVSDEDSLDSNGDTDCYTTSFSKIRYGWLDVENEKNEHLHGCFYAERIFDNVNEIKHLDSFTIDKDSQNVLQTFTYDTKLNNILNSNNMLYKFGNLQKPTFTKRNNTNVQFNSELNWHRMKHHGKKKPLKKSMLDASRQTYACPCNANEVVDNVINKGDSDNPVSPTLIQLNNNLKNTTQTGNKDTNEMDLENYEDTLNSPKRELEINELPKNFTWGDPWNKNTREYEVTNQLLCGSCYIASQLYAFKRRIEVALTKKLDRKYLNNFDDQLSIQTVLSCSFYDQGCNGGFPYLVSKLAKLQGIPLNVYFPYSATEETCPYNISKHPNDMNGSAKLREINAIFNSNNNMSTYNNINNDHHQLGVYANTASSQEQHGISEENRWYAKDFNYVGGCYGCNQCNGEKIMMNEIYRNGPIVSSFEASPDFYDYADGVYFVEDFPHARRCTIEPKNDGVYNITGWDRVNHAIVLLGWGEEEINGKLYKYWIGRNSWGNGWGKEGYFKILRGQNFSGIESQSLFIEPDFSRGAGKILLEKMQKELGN
Parameters: species or system P. falciparum D10 trophozoite lysates; single well
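Note: 30 min substrate incubation versus DMSO and 10 µM JCP410 controls.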

SMILES	% Inhibition @ 10 uM
CN1CCN(CC(O)COc2ccccc2)CC1 (stereo not drawn)	0.00178% and -1.7%
C=CCn1c(SCC2=C(C(=O)OCC)C(c3cc(C)ccc3C)NC(=O)N2)nnc1-c1ccco1 (stereo not drawn)	-2.63%
COc1ccc(C2CC(C(F)(F)F)n3nc(C(=O)NCc4ccco4)c(Br)c3N2)cc1 (stereo not drawn)	5.37%
CC(C)C(NC(=O)CN(c1ccc(F)cc1)S(=O)(=O)c1ccc2c(c1)OCCO2)C(C)C	-7.25%
Cc1nn(C(=O)/C=C/c2ccccc2)c(C)c1Sc1ccccc1	14.6%
Cc1nn(C(C)C(=O)NCc2ccccc2Cl)c(=O)c2c1sc1ccccc12 (stereo not drawn)	-3.34%
O=C(CN1CCN(Cc2ccccc2Cl)C1=O)NCc1cccnc1	-4.16%
CCn1cc(C2C3=C(O)CCCC3=NC(C)=C2C(=O)Nc2ccc(Br)cn2)c(C)n1 (stereo not drawn)	-4.41%
Oc1nc(-c2ccccc2)cc(-c2ccccc2)n1	-2.03%
N=CC1=C(O)c2ccccc2C1=O	0.343%
N=C1/C(=C/c2ccc(Sc3cccc4ccccc34)o2)C(=O)N=C2SC=CN12	2.14%
Cc1cc(C)c(C)c(Cn2c(CO)nc3ccccc32)c1C	-0.551%
Cc1nnc(N2C(=O)c3oc4ccccc4c(=O)c3C2c2cccs2)s1 (stereo not drawn)	3.12%
O=C(NC(=S)NCCc1ccccc1)c1ccccc1	-8.01%
NC(=O)c1ccc2[nH]c3c(c2c1)CCCC3	4%
COc1ccc2c(CNCCc3ccccc3C)c(C(=O)O)n(Cc3ccccc3F)c2c1	-6.56%
CCOC(=O)N1CCN(C(=O)c2nc(-c3ccc(C)cc3)n3c2CCCCC3)CC1	-2.4%
COc1cccc2c1Oc1nc(-c3cccc(OC(C)C)c3)nc(O)c1C2	-1.06%
CC(NC(=O)c1ccc(Cl)c([N+](=O)[O-])c1)c1ccccc1 (stereo not drawn)	2.38%
CCC(=O)CC(c1ccc([N+](=O)[O-])cc1)c1c(O)sc2ccccc2c1=O (stereo not drawn)	4.98%
CCOC(=O)N1CCN(C(=O)CS(=O)Cc2nc(-c3cccc(C)c3)oc2C)CC1 (stereo not drawn)	-1.05%
CC/C(=N\c1ccccc1)C1=C(O)CC(C)(C)CC1=O	6.65%
COCCNC(=O)Nc1cn(C)c(=O)c2ccccc12	0.745%
CC(=O)Nc1nnc(S(=O)(=O)N2CCOCC2)s1	-5.37%
COc1ccc(CNC(=O)Cn2c(=O)[nH]c3ccsc3c2=O)cc1	-1.29%
COc1ccc(C2c3[nH]c4ccccc4c3CCN2C(C)=O)c(OC)c1 (stereo not drawn)	-4.3%

SMILES	% Inhibition @ 10 uM
O=C(Nc1sc2c(c1C(=O)c1ccccc1)CCCC2)c1ccc([N+](=O)[O-])cc1	1.54%
Cc1ccc(SCc2ccccc2C(=O)O)cc1	-6.83%
CCOCCCNc1nc2ccccc2c2nc(-c3ccccc3)nn12	2.6%
COc1ccc(OC)c(CN2CCN(Cc3ccc(Br)cc3)CC2)c1	0.635%
CCN(Cc1ccccc1)C(=O)c1ccc(SC)cc1OC	0.777%
Cc1cccc(/C=C2/SC(=O)N(CN(C)C)C2=O)c1	8.71%
CCOC(=O)c1c(C)n(-c2ccc(OCC)cc2)c2ccc(O)cc12	-3.09%
O=C(NC1(C(F)(F)F)NC(=O)N(CCc2ccccc2)C1=O)C1CCCCC1 (stereo not drawn)	7.4%
CCc1ccc(-c2cc(C)no2)cc1S(=O)(=O)Nc1cc(C)ccn1	2.74%
O=C(C1CCC(c2ccccc2)CC1)N1CCOCC1 (stereo not drawn)	-5.11%
Cc1cc(O)c2c3c(c(=O)oc2c1)CCCC3	1.37%
COc1ccc(CN2CCc3nc(O)nc(O)c3C2)cc1	-3.13%
CCC(O)c1nc2ccccc2n1C (stereo not drawn)	2.05%
Cc1ccc(C2=NS(=O)(=O)N(C)C(C(=O)NCC3CCCO3)=C2)cc1 (stereo not drawn)	2.32%
COc1ccc(OC)c(C2C3=C(O)CC(C)(C)CC3=Nc3ccccc3N2C(C)=O)c1 (stereo not drawn)	-6.59%
CN(C)Cc1cc(CN(C)C)c(O)c(C(C)(C)C)n1	-1.86%
O=C1Oc2ccccc2C(=O)/C1=C(O)/C=C/c1ccc(-c2ccccc2)o1	3.27%
COc1cccc(C2=NS(=O)(=O)N(C)C(C(=O)NCC34CC5CC(CC(C5)C3)C4)=C2)c1	-6.59%
NC(=O)c1cc(S(=O)(=O)N(Cc2ccco2)C2CCCCC2)cs1	-5.12%
CN1C(=O)CC(N2CCN(c3ccccc3)CC2)C1=O (stereo not drawn)	-0.992%
Cc1ccc2nc(NC(=O)c3sc(C)nc3C)sc2c1	0.758%
c1ccc(CSc2nc3ncccc3o2)nc1	3.31%
O=C(NC1CCN(Cc2ccccc2)CC1)c1sc2ccccc2c1Cl	-4.35%
Cc1cc(C)c(NC(=O)C(C)N2CCCCCC2)c(C)c1 (stereo not drawn)	-4.01%
CCOC(=O)c1cnn2c(N)c(C#N)nnc12	-7.51%
